From the supplement of paper PMC8183993
Where “and” joins values, the source holds several entries; their conditions need not be identical. Equal entries are not always repeated. Structures can show the parent of a compound that is named as a salt. ± gives the standard deviation of the averaged measurements. Over roughly 3,200 compounds, “nuclei count (viability) relative to DMSO” has its median near 99; the lowest 2% begin near 16. The list shows a part of the results.

system: U2OS; assay: nuclei count (viability) relative to DMSO (% of DMSO); higher = more viable cells; details: 10 µM; 24 h
Method: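 Primary image-based screen in U2OS cells: compounds at 10 uM for 24 h, then a 1 h o-propargyl-puromycin (OPP) pulse, click labelling, and high-throughput microscopy. Mean cytoplasmic OPP intensity and nuclei count were normalised to DMSO wells within each plate (DMSO = 100) and averaged over triplicate plates.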

Compound	nuclei count
CC(C)C[C@H](NC(=O)[C@@H](O)[C@H](N)Cc1ccccc1)C(=O)O [Bestatin]	94.4
CN(C)CCCSc1ccccc1NC(=O)/C=C/c1ccccc1 [Cinanserin hydrochloride]	110
N#C[C@@H]1CCCN1C(=O)CNC12CC3CC(CC(O)(C3)C1)C2 [Vildagliptin (LAF-237)]	98.5
CC(C)C[C@H](NC(=O)CNC(=O)c1cc(Cl)ccc1Cl)B(O)O	9.55
O=C(O[C@@H]1Cc2c(O)cc(O)cc2O[C@@H]1c1cc(O)c(O)c(O)c1)c1cc(O)c(O)c(O)c1 [Epigallocatechin gallate]	103 ± 10
OC1CCC(Nc2nc(-c3ccccc3)nc3[nH]ccc23)CC1 (stereo not given)	92.3
CC(=O)NNC(=O)N1Cc2ccccc2Oc2ccc(Cl)cc21	94.3
N[C@@H]1CN(c2c(F)cc3c(=O)c(C(=O)O)cn([C@@H]4C[C@@H]4F)c3c2Cl)CC12CC2 [Sitafloxacin hydrate]	107
CNC[C@H](O)c1cccc(O)c1 [Phenylephrine HCl]	96.1
CCn1cc(-c2ccnc3[nH]c(-c4cccc(CN(C)C)c4)cc23)c(-c2ccc(NC(=O)N(C)C)cc2)n1	30
CCOc1ccn(-c2ccc(F)cc2)c(=O)c1C(=O)Nc1ccc(Oc2ccnc(N)c2Cl)c(F)c1	67.3
Cc1nc(Nc2n[nH]c3c2CN(C(=O)N[C@H](CN(C)C)c2ccccc2)C3(C)C)c2sccc2n1	38
[Cl-].[Li+] [Lithium Chloride]	102
CCCCCCN(CCCCCC)C(=O)Cc1c(-c2ccc(F)cc2)[nH]c2ccccc12	101
CCCCCCCCCCCCCCSCC(=O)O [Tetradecylthioacetic acid]	98.5
CCc1cc2c(c(CC)n1)CCC(=O)N2Cc1ccc(-c2ccccc2-c2nn[nH]n2)cc1 [ZD 7155 hydrochloride]	102
C#CCN(C)CCCOc1ccc(Cl)cc1Cl [Clorgyline hydrochloride]	92.7
CC(C)(CO)Cc1cc(C(C)(C)C)c(O)c(C(C)(C)C)c1	103
O=C(O)CN(CCN(CC(=O)O)CC(=O)O)CCN(CC(=O)O)CC(=O)O [Pentetic acid]	105
CC(C(=O)Nc1cccc(/N=C/c2c(O)ccc3ccccc23)c1)c1ccccc1 (stereo not given) [Salermide]	101
CC(C)NCC(O)c1cc(O)cc(O)c1 (stereo not given) [Metaproterenol sulfate, orciprenaline sulfate]	108
O=[N+]([O-])c1cc2nc(O)c(O)nc2cc1[N+](=O)[O-]	106
C[C@@]1(c2cc(-c3cncnc3)c(F)cc2F)CCSC(N)=N1	108
CCc1cnn2c(NCc3ccc[n+]([O-])c3)cc(N3CCCC[C@H]3CCO)nc12	35.11 ± 0.057
Cn1c(=O)c2c(ncn2CCO)n(C)c1=O [Etofylline]	108

Compound	nuclei count
COC(C)(C)CCCC(C)C/C=C/C(C)=C/C(=O)O (stereo not given) [Methoprene acid]	105
COc1nc(N)nc2c1ncn2[C@@H]1O[C@H](CO)[C@@H](O)[C@@H]1O [Nelarabine (Arranon)]	110
CN(C)CCCn1cc(C2=C(c3c[nH]c4ccccc34)C(=O)NC2=O)c2ccccc21	55.6 and 47.3
OC[C@H]1O[C@H](O[C@H]2O[C@H](CO)[C@@H](O)[C@H](O)[C@H]2O)[C@H](O)[C@@H](O)[C@@H]1O [Trehalose]	107
CN/C(=N\c1ccc(C2=NNC(=O)CC2C)cc1)NC#N (stereo not given) [Siguazodan]	99
O=C(Nc1cccc(Nc2ncc(Br)c(NCCc3cnc[nH]3)n2)c1)N1CCCC1	41.4 ± 1.2
COc1ccccc1N1CCN(CCCNc2cc(=O)n(C)c(=O)n2C)CC1 [Urapidil hydrochloride]	108 ± 5.5
Oc1cc2c(c(Cl)c1O)CCNCC2c1ccccc1 (stereo not given)	91.2
CC(C)=CCC/C(C)=C/CC/C(C)=C/CC/C(C)=C/CO [Geranylgeraniol]	94.4
CCN(CC)Cc1cc(Nc2ccnc3cc(Cl)ccc23)ccc1O [Amodiaquin dihydrochloride dihydrate]	90.5
COCC(=O)O[C@]1(CCN(C)CCCc2nc3ccccc3[nH]2)CCc2cc(F)ccc2[C@@H]1C(C)C [Mibefradil dihydrochloride]	81.7
CCC(=O)OCC(=O)[C@@]1(OC(=O)CC)[C@@H](C)C[C@H]2[C@@H]3CCC4=CC(=O)C=C[C@]4(C)[C@@]3(Cl)[C@@H](O)C[C@@]21C [Beclomethasone dipropionate]	107
CCC(=O)OCC(=O)[C@@]1(OC(=O)CC)[C@@H](C)C[C@H]2[C@@H]3CCC4=CC(=O)C=C[C@]4(C)[C@@]3(Cl)[C@@H](O)C[C@@]21C [Beclomethasone dipropionate (Beclometasone dipropionate)]	112
OC[C@H]1O[C@@H](n2cnc3c2N=CNC[C@H]3O)C[C@@H]1O [Pentostatin]	106
CN(C)c1ccccc1CN1CCCN(Cc2ccccc2N(C)C)C1c1ccncc1	101
O=c1c2ccccc2nc2n1CCc1c-2[nH]c2ccccc12 [Rutaecarpine (Rutecarpine)]	91.4
COc1ccc2[nH]c(C(=O)c3ccccc3)cc2c1	20.8
O=C(/C=C/C=C/c1ccc2c(c1)OCO2)N1CCCCC1 [Piperine (1-Piperoylpiperidine)]	104
O=C(Nc1cccc2cccnc12)c1ccc(N2C(=O)[C@@H]3[C@H](C2=O)[C@@H]2C=C[C@H]3C2)cc1 [endo-IWR 1]	102
CCCCc1nc(Cl)c(CO)n1Cc1ccc(-c2ccccc2-c2nnn[nH]2)cc1 [Losartan]	96.2
CC1(C)S[C@@H]2[C@H](NC(=O)Cc3ccccc3)C(=O)N2[C@H]1C(=O)O [Benzathine benzylpenicillin]	81.7
CC1(C)S[C@@H]2[C@H](NC(=O)Cc3ccccc3)C(=O)N2[C@H]1C(=O)O [Benzylpenicillin sodium]	98.6
Cc1nc2n(c(=O)c1CCN1CCC(c3noc4cc(F)ccc34)CC1)CCCC2O (stereo not given) [Paliperidone (Invega)]	102
CCN(CC)CCNC(=O)COc1ccc(OC)cc1 [Mefexamide hydrochloride]	114
Clc1ccc(C(Cn2ccnc2)OCc2csc3c(Cl)cccc23)c(Cl)c1 (stereo not given) [Sertaconazole nitrate]	93.7

Compound	nuclei count
C=CCn1c(=O)c2cnc(Nc3ccc(N4CCN(C)CC4)cc3)nc2n1-c1cccc(C(C)(C)O)n1	25.1
CC(=O)OCC1=C(C(=O)O)N2C(=O)[C@@H](NC(=O)Cc3cccs3)[C@H]2SC1 [Cephalothin sodium salt]	100
O=C1CCC(N2C(=O)c3ccccc3C2=O)C(=O)N1 (stereo not given) [Thalidomide]	103 ± 10
O=C1NCCN1CCN1CCC(c2cn(-c3ccc(F)cc3)c3ccc(Cl)cc23)CC1 [Sertindole]	75.3
CNCCCN1c2ccccc2CCc2ccccc21 [Desipramine hydrochloride]	105
O=C1OC(CN2CCOCC2)CN1/N=C/c1ccc([N+](=O)[O-])o1 (stereo not given) [Furaltadone hydrochloride]	98.5
Cc1ccc(-c2c(-c3nn(C)c4ncnc(N5CC[C@H](N6CCCCC6)C5)c34)cnn2C)cc1	102
O=C1c2c(O)cc(O)cc2O[C@H](c2cc(O)c(O)c(O)c2)[C@H]1O [Dihydromyricetin (Ampeloptin)]	99.5
C[C@H]1[C@H](OC(=O)CCC(=O)O)O[C@@H]2O[C@@]3(C)CC[C@H]4[C@H](C)CC[C@@H]1[C@@]24OO3 [Artesunate]	78.9
CN(CCOc1ccc(C[C@H](Nc2ccccc2C(=O)c2ccccc2)C(=O)O)cc1)c1ccccn1	104
O=C(O)CCNC(=O)c1ccc(/N=N/c2ccc(O)c(C(=O)O)c2)cc1 [Balsalazide Sodium]	105
CCC(C)n1ncn(-c2ccc(N3CCN(c4ccc(OCC5COC(Cn6cncn6)(c6ccc(Cl)cc6Cl)O5)cc4)CC3)cc2)c1=O (stereo not given) [Itraconazole (Sporanox)]	95.6
CCC(C)n1ncn(-c2ccc(N3CCN(c4ccc(OCC5COC(Cn6cncn6)(c6ccc(Cl)cc6Cl)O5)cc4)CC3)cc2)c1=O (stereo not given) [Itraconazole]	105
Cc1cccc(Nc2ccccc2C(=O)O)c1C [Mefenamic acid]	89.6
CCOc1cc(N)c(Cl)cc1C(=O)NCC1CN(Cc2ccc(F)cc2)CCO1 (stereo not given) [Mosapride citrate]	104
C[n+]1ccccc1/C=N/O [Pralidoxime chloride]	92.8
O=C1NC(=O)/C(=C/c2cccc(C(F)(F)F)c2)S1	106 ± 9.4
Cc1cc(O)c2c(c1)C(=O)c1cc(O)cc(O)c1C2=O [Emodin]	105
Cn1cc(-c2ccc3nnc(Sc4ccc5ncccc5c4)n3n2)cn1	104
Clc1ccc(Nc2nnc(Cc3ccncc3)c3ccccc23)cc1 [Vatalanib]	90.3
Clc1ccc(Nc2nnc(Cc3ccncc3)c3ccccc23)cc1 [Vatalanib dihydrochloride (PTK787)]	87
COC(=O)c1ccc2c(C(=Nc3ccc(N(C)C(=O)CN4CCN(C)CC4)cc3)c3ccccc3)c(O)[nH]c2c1 [BIBF1120 (Vargatef)]	103
CCOC(=O)[C@H](CCc1ccccc1)N[C@@H](C)C(=O)N1Cc2cc(OC)c(OC)cc2C[C@H]1C(=O)O [Moexipril HCl]	97.6
CCOC(=O)[C@H](CCc1ccccc1)N[C@@H](C)C(=O)N1Cc2cc(OC)c(OC)cc2C[C@H]1C(=O)O [Moexipril hydrochloride]	101
CN1CCC(OC(c2ccccc2)c2ccccc2)CC1 [Diphenylpyraline hydrochloride]	97.5
